Some of the results follow.
test system: T1, C. trachomatis L2/434/Bu expressing GFP (CTL2-GFP); design: species or system HeLa; C. trachomatis total inclusion area by high-content imaging, normalised to DMSO; conditions: total inclusion area; 28.5 h, 10 µM; inhibitor
T1 construct: L2/434/Bu GFP intracellular growth in HeLa cells
Summary of the method: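 Following bulk GFP and resorufin fluorescence reads, infected cells were fixed, Hoechst-stained and imaged on a high-content platform. Inclusion total area and number per well served as growth proxies; nuclei counts indicated host viability. MICs were derived as for the fluorescence assay.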

Compound	% of control remaining
O=C(CSc1nnc(CCc2ccccc2)n1-c1ccc(Cl)cc1)c1ccccc1 [CBK266277]	104.787
CN(C)c1nc(N(C)C)n(Cc2ccc(F)cc2)n1 [CBK018839]	61.5415
O=C(NCCN1CCOCC1)c1cccc(S(=O)(=O)N2CCCC2)c1 [CBK267316]	118.227
CC(=O)NCCc1ccc(S(=O)(=O)N2CCN(Cc3ccccc3)CC2)cc1 [CBK268458]	93.1465
CC(C)(CO)CNc1nc(-c2ccsc2)cnc1N [CBK063499]	90.4946
CC(C)(C)NC(=O)Cn1cncc1-c1cnn(C2CCCCC2)c1 [CBK281701]	103.318
O=C(O)c1cc(NC/C=C/c2ccccc2)ccc1N1CCOCC1 [CBK269806]	68.0151
CS(=O)(=O)c1ncc(Cl)c(C(=O)N(Cc2ccccc2)Cc2ccco2)n1 [CBK269603]	0.3506
COc1ccc(OCC2CCN(C(=O)[C@@H]3C[C@@H]4C=C[C@H]3C4)CC2)cc1 [CBK282218]	72.1099
Nc1nc(N)c2nc(C3OCCO3)cnc2n1 [CBK027115]	60.551
COC(=O)[C@@H]1Cc2ncn(Cc3ccc(Cl)cc3)c2CN1C(=O)c1ccc(C#N)cc1 [CBK288984]	88.146
O=C(Nc1ccc2c(c1)C(=O)NC2=O)c1ccccc1 [CBK270384]	104.124
Cn1nc2c(cc1=O)CN(C(=O)c1cnc(C(C)(C)C)nc1)CC2 [CBK304293]	102.917
CC(=O)c1ccc2c(c1)[C@@H]1C=CC[C@@H]1[C@H](C(=O)O)N2 [CBK287093]	111.182
O=C(Cn1cnnn1)NCc1ccccc1 [CBK200255]	98.4899
CCCn1cnc2cc(NC(=O)Cn3cccc(C(=O)Nc4ccc(F)cc4)c3=O)ccc21 [CBK286060]	97.8165
COc1ccc(OC)c([C@@H]2CN(Cc3ccccc3)C[C@H]2NC(=O)c2ccco2)c1 [CBK286479]	89.541
Cc1cc(C(=O)N2Cc3ccccc3C2)n[nH]1 [CBK200328]	108.814
O=C1CC(C(=O)Nc2ccc(Cl)cc2)c2c(nc(SCc3ccccc3F)[nH]c2=O)N1 (stereo not drawn) [CBK294437]	101.287
NC(=O)C1CCN(c2ccc(-c3noc([C@@H]4CCCN4Cc4cccnc4)n3)cn2)CC1 [CBK288882]	115.764
Cc1nnc([C@H]2CCN(Cc3ccc(F)cc3)C2)o1 [CBK289391]	111.197
O=C(COc1ccc(Cl)cc1)NNC(=O)c1cccnc1 [CBK261044]	101.954
C=CCN1C(=O)CC2(C1=O)C(=O)N(CC)c1ccc(F)cc12 (stereo not drawn) [CBK075316]	75.4255
Cc1c(C(=O)O)sc2nc(SCC(=O)Nc3ccc(OCc4ccccc4)cc3)[nH]c(=O)c12 [CBK296992]	101.155
Cc1cc2n(n1)[C@@H](C(F)F)C[C@@H](C1CCCN(C(=O)C3CC3)C1)N2 (stereo partly drawn) [CBK284723]	85.5626
CCCC(=O)N1CCCC1c1cc2n(n1)[C@@H](C(F)(F)F)C[C@@H](C)N2 (stereo partly drawn) [CBK283003]	114.33

Compound	% of control remaining
COc1ccc(Cl)c(Cn2c(NCc3ccccn3)nc3c2c(=O)n(C)c(=O)n3C)c1 [CBK268965]	102.967
O=C(c1ccc(F)cc1)C1CCN(Cc2cccnc2)CC1 [CBK149118]	59.5556
Cc1ncccc1C(=O)N1CCC2(CCc3ccccc3C(=O)N2)C1 (stereo not drawn) [CBK283338]	80.327
CN(C)C(=O)c1ccc(-c2cnc3[nH]c(=O)n(CCCN4CCOCC4)c3n2)cc1 [CBK064828]	77.4858
Cc1cnccc1N1CCN(C(=O)CCCOc2ccccc2)CC1 [CBK304677]	63.6543
O=C(NC1CCCCC1)NC1CCN(Cc2nnnn2Cc2ccco2)CC1 [CBK085007]	87.6117
CCCN1CCC(NCC(C)(C)CN(C)C)CC1 [CBK261934]	99.928
COc1cc(-c2cncc(NCc3ccco3)n2)cc(OC)c1OC [CBK065259]	80.6236
COc1ccc(-c2cc(C(F)(F)F)nc(SCC(=O)NN3CCN(C)CC3)n2)cc1 [CBK266115]	82.2201
O=C1CC(c2ccc(S(=O)(=O)NCc3ccccc3)cc2)CN1 (stereo not drawn) [CBK270155]	66.3636
COc1ccc(CN2CCN(c3ccc(F)cc3)CC2)cc1OCc1ccccc1 [CBK261894]	94.9476
COc1ccccc1-c1nnc2sc(-c3cnccn3)nn12 [CBK268428]	122.082
O=C(O)CC(Cc1ccccc1)(C(=O)O)c1ccccc1 (stereo not drawn) [CBK287133]	92.0644
CN1CCN(C(=O)CCc2nc(-c3ccc(Cl)cc3)no2)CC1 [CBK268304]	102.175
COc1cc(CNc2cc(-c3ccc(F)c(Cl)c3)nc3ccnn23)cc(OC)c1OC [CBK037209]	67.0268
Cc1cc([N+](=O)[O-])nn1CCCC(=O)Nc1cccc(O)c1 [CBK268747]	92.5348
Cc1cc(C[C@@H]2COC[C@H]2NCc2ccc(Cl)c(Cl)c2)on1 [CBK285400]	102.517
O=C(O)c1cccc(S(=O)(=O)Nc2ccccc2C(=O)NCc2ccccc2)c1 [CBK296697]	106.934
CCCN1CCCC(c2ccccc2O)C1 (stereo not drawn) [CBK024365G]	23.6079
Cc1cc(C)n2ncc(C(=O)N3CCCCC3c3ccccn3)c2n1 (stereo not drawn) [CBK307257]	32.9689
CCCc1ccc(S(=O)(=O)Nc2nc(-c3cccc([N+](=O)[O-])c3)cs2)cc1 [CBK000987]	89.3067
Cc1ccc(C(Cn2cncc2-c2cn(C)nc2C)N(C)C)cc1 (stereo not drawn) [CBK281896]	129.356
Cc1ncc2c(n1)CCCC2NC(=O)c1ccccc1Cn1cncn1 (stereo not drawn) [CBK306381]	88.1725
NCCCOc1cc(N2CCCC2)ncn1 [CBK115285]	105.474
CC1CCc2c(sc(NC(=O)c3nc4ncccn4n3)c2C(N)=O)C1 (stereo not drawn) [CBK267631]	104.69
Cc1cc(C)cc(Oc2nccn3c(=O)[nH]nc23)c1 [CBK288451]	118.807

Compound	% of control remaining
CC(=O)N[C@@H](Cc1c[nH]cn1)C(=O)N1CC[C@H]2NC(=O)[C@H](Cc3ccccc3)NC(=O)C3(C/C=C/C[C@H]2C1)CCOCC3 [CBK292206]	101.996
c1ccc(CC2CCN(CCc3c[nH]c4ccccc34)CC2)cc1 [CBK126385]	112.82
CC(C)Cn1c(=O)c(C(=O)Nc2cccc(Cl)c2)c(O)c2ccccc21 [CBK159967]	144.022
Cc1c(Cc2ccccc2)sc(NC(=O)c2cccnc2)c1C(N)=O [CBK269851]	86.593
CC(C)(C)C1CCC(OC(=O)Cn2nnc3ccccc3c2=O)CC1 (stereo not drawn) [CBK306408]	50.0729
NC(=O)C1(N2CCCCC2)CCN(Cc2nc(O)c3ccccc3n2)CC1 [CBK265896]	98.7851
Nc1ncn(Cc2ccccc2)c2nc(SCc3ccccc3)nc1-2 [CBK025744]	118.195
COc1ccc(C)cc1NC(=O)N1CCC2(CC1)CC(=O)c1ccc(C)cc1O2 [CBK166520]	80.6193
N#CCCCN1CCC(Oc2nccnc2OCc2cccc(OCc3ccccc3)c2)CC1 [CBK161572]	74.0748
CCCS(=O)(=O)N1CCCC(Cc2ccc(F)cc2F)(C(=O)OCC)C1 (stereo not drawn) [CBK307221]	80.3793
Cc1cc(-c2cc(=O)n(Cc3ccc(F)cc3)nc2C2CC2)on1 [CBK284364]	61.4256
COCc1cn([C@H]2CO[C@H]3[C@@H]2OC[C@@H]3NC(=O)Nc2ccc(OC)cc2)nn1 [CBK289495]	106.314
O=C(NCc1cccnc1-n1cccn1)c1c[nH]c(C(=O)N2CCCC2)c1 [CBK298263]	101.639
COC(=O)c1ccsc1NC(=O)CN1CCN(Cc2ccc3c(c2)OCO3)CC1 [CBK267940]	101.395
COc1ccc(C(C)NC2CCN(c3ccccn3)CC2)cc1F (stereo not drawn) [CBK304146]	73.3309
COC(=O)c1ccccc1OC(=O)COc1ccc(Cl)cc1Br [CBK268733]	82.5038
CCOC(=O)C1(C2CCCCC2)CCN(C(=O)c2cccc(C(F)(F)F)c2)CC1 [CBK136920]	88.265
O=C(C1CCCN(C2CCN(Cc3ccccc3)CC2)C1)N1CCN(c2ccccc2)CC1 (stereo not drawn) [CBK265440G]	98.3728
O=C(Nc1ccc2nc(-c3ccc(-c4nc5ccc(NC(=O)c6cccs6)cc5[nH]4)cc3)[nH]c2c1)c1cccs1 [CBK261590]	87.4064
O=C1CCC(=O)N1CCOc1nccnc1OC1CCN(Cc2ccc(C(F)(F)F)cc2)CC1 [CBK084341]	78.8377
CCOc1ccc(C(=O)Nc2ccc(-c3nc4cc(C)c(C)cc4o3)cc2)cc1[N+](=O)[O-] [CBK262818]	107.802
COCCSc1nnc(NS(=O)(=O)c2ccc(F)cc2)s1 [CBK144919]	90.7555
O=C1CN(C(=O)NC(c2ccccc2)c2ccccc2)CCN1 [CBK155853]	106.011
O=C(CSc1nnc(-c2ccco2)[nH]1)Nc1cccc(Cl)c1 [CBK293990]	101.23
CCOC(=O)c1c(N)sc(C(=O)Nc2cccc([N+](=O)[O-])c2)c1C [CBK066829]	128.919
CC(Cn1cnc2ccccc21)C(=O)N1CCCCC1CN(C)C (stereo not drawn) [CBK282191]	93.7507
